The chains are these.
B1: LINE1-full (parent)
chain: UACGUAGGUGGUUUUCCCCUGAUAGUGCUAAGGGGGCCUGGAAGUUUGGACUGGGCAGAGCUCAACACAGCGUGGCAAAGUGGCUGUGGCUAGACUGCCUCUCUGGAUUCCUCGUCACUCAGCAGGGCAUCUCUGAGAGAAAUGCC

Read counts are not given, so values of variants with three or more changes are uncertain.

Variants of B1 are the subject of this data set. Description: self-cleavage, relative activity (ratio to wild type); higher = more cleavage; in vitro, sequencing; the parent is a self-cleaving ribozyme.
For the variant U14C A92U A140G, the self-cleavage amounted to 0.47.

For the variant U12C U20C A59G A77G A78U U100A A141G, the self-cleavage was 0.

With U1A C16U U109C, the self-cleavage came to 1.58.

U73A G80A C84U C146U: the self-cleavage came to 0.35.

On to U12C U14A A77U U119C, for which the self-cleavage was 2.38.

As for U39C C66A A79G G93U A142G, the self-cleavage was 0.03.

As to U23C U87A U134C, the self-cleavage is 0.

For the variant U20C U62A A136U, the self-cleavage came to 0.12.

As to A22U U46C C113U A121G A124G, the self-cleavage is 0.75.

In the case of U47C U115A A142G, the self-cleavage came out at 2.09.

U46C A65G U108C: the self-cleavage is 0.

Take U13C U119C A136U: the self-cleavage is 2.36.

Turning to C37G U104C A142G, the self-cleavage amounted to 1.05.

Regarding G41A A77U G105A, the self-cleavage worked out at 1.17.

With U20G A42U A65G G75U U112C U134C, the self-cleavage stood at 0.05.

For the variant U9A U46A U132C A142G, the self-cleavage was determined as 1.33.

In the case of G35A A50G A77G U143C, the self-cleavage came out at 0.43.

Regarding U12G C19U U46C G114A A117G A124G U143A, the self-cleavage is 1.05.

Take U5C U13G A129G: the self-cleavage was found to be 1.46.

As to U12C A31C U47A A59G, the self-cleavage came to 0.31.

G40A U45A G75A U132C: the self-cleavage is 0.75.

As to A24G A43G U112C, the self-cleavage was found to be 1.02.

For A42G A65G C146U, the self-cleavage is 0.05.

As to U12G C16A A77U U96C, the self-cleavage came to 0.19.

Turning to A67G U109C A117U, the self-cleavage was 0.33.

On to A69U U87C U100C A107G A138G, for which the self-cleavage is 0.

As for U13A A42G A69U U112A, the self-cleavage came out at 0.08.

In the case of G10A U23C G74A U87A, the self-cleavage amounted to 0.05.

As to A42G A79G U91A A140G, the self-cleavage amounted to 1.23.

For the variant U109A U115C G127U, the self-cleavage came out at 1.47.

Regarding U13C U26C U112C, the self-cleavage was 1.46.

On to U13A U104C U143C, for which the self-cleavage was 1.31.

In the case of U13C U20C A42G G55U U62C A67U U132C, the self-cleavage amounted to 0.23.

Turning to U13C U119C A124U U132A, the self-cleavage was found to be 1.41.

As for U73A A78G A124G, the self-cleavage stood at 0.26.

Take U26C C61U A141G: the self-cleavage came to 0.11.

On to G7A U13C G80A, for which the self-cleavage is 1.67.

Turning to U9C G40A U73A, the self-cleavage worked out at 0.32.

With U5A U96C C99U U102C, the self-cleavage worked out at 0.

Take G34A U47A U81A U100C: the self-cleavage was determined as 2.99.

As to A77G U87A U115C, the self-cleavage worked out at 0.11.

Take A57U A78G U134C: the self-cleavage stood at 0.06.

In the case of U9C C56U U102A A136G, the self-cleavage amounted to 0.16.

With U14C A57G A107G, the self-cleavage is 1.84.

For the variant U12A A121G A141G, the self-cleavage is 1.21.

For the variant U13C U62C A67U U102C, the self-cleavage came out at 0.

With U15A U119G G126U, the self-cleavage was 0.96.

For the variant U26C A64G A129G, the self-cleavage came out at 0.

As to U39A U85A A117U A141G, the self-cleavage was 0.07.

Take A57U A67G A69G: the self-cleavage is 0.

Consider A69G A94U C113U A140G G144A, for which the self-cleavage amounted to 0.1.

For the variant C68U U115A A138C, the self-cleavage came to 0.05.

Regarding U12G A107G G127A, the self-cleavage was found to be 0.87.

Turning to U13C U20C U45C C71A A117G, the self-cleavage came out at 0.19.

As to U9C U12C U23A U46A A64G G82A U109C, the self-cleavage was found to be 0.39.

A50U A57G A121G: the self-cleavage worked out at 0.61.

In the case of U15C A64U C71U U87C A138U, the self-cleavage is 0.2.

Regarding U1C A64U U81A, the self-cleavage was determined as 0.29.

As for C18U C95U U96C, the self-cleavage is 0.09.

Take A22G A42G A140G: the self-cleavage was determined as 1.48.

As for U15A U20C U91C U96A U108C A142G U143C, the self-cleavage was 0.

As for G10A A77U A92G U134C, the self-cleavage amounted to 0.16.

U14A U23A U108C C113U A141G: the self-cleavage worked out at 1.94.

In the case of A22G U39A U52C, the self-cleavage turned out to be 0.82.

For the variant U1C A138G A142G, the self-cleavage was determined as 1.13.

G10A U15C U62C: the self-cleavage was 0.12.

Consider A22U U39A A79G U96C A124G, for which the self-cleavage worked out at 0.

For C19U G40A U62C G125A, the self-cleavage was found to be 0.05.

Consider A6G G40U U62A U100A U104C A141U, for which the self-cleavage worked out at 0.26.

C37G A79G A117C: the self-cleavage came to 1.02.

U1C A42U A121U: the self-cleavage turned out to be 0.32.

With G8A G127U A138U, the self-cleavage turned out to be 1.21.

Consider A59U U100C U115C, for which the self-cleavage was determined as 0.88.

For the variant U20C U46C A78G, the self-cleavage was 1.11.

On to U12C G36U U47C U73A G82A, for which the self-cleavage turned out to be 2.07.

U13C U20C A24G: the self-cleavage was determined as 0.92.

Take U15A A42G U47G C103A U132A: the self-cleavage is 0.71.

As for U45C U87A U112C, the self-cleavage amounted to 0.17.

In the case of U13C A77G A92U A121U, the self-cleavage worked out at 0.74.

As to U13C A31G A124G, the self-cleavage was determined as 1.2.

In the case of U12C A42U U47A A141G, the self-cleavage is 1.36.

In the case of U14A C19U U115C A124G, the self-cleavage turned out to be 1.04.

Take G10A A64U G126A: the self-cleavage worked out at 0.52.

With A50G U112C A138G, the self-cleavage was 1.67.

Consider U13C U73A A92G, for which the self-cleavage worked out at 0.16.

On to A30G A42G A69G U119C, for which the self-cleavage was 0.

For U20A A50G C76A, the self-cleavage turned out to be 0.86.

As to A65G A124C A141G, the self-cleavage was found to be 0.11.

For U15A G34A U73A U108C U119C, the self-cleavage turned out to be 1.87.

For the variant A79U G93U G106U, the self-cleavage stood at 0.08.

With U13C U62G U81A U102C, the self-cleavage stood at 0.25.

As for G40U A42G A67C, the self-cleavage amounted to 0.

For U12G A107G U109C C113U, the self-cleavage worked out at 0.82.

A31G A94U A121G A136U: the self-cleavage worked out at 0.

U12A A57G A94G: the self-cleavage is 0.28.

As to A65U A138G A142G, the self-cleavage worked out at 0.2.

For the variant U20C A42G U46A A124G, the self-cleavage amounted to 1.84.

In the case of U45A U85C G127A, the self-cleavage came out at 0.13.

As for A22G U62C A79U, the self-cleavage was determined as 0.12.

For the variant A31C U85C A140G, the self-cleavage was 0.25.

For U73C A107G U115A, the self-cleavage came out at 1.31.

Regarding U45C G86A A117G, the self-cleavage came to 0.04.

As for U1C U14C A42G U45C U102A A121U A136U, the self-cleavage stood at 1.31.

As to U12C G60A U87C, the self-cleavage came to 0.2.

U13G U73A A129G A138G: the self-cleavage stood at 1.58.

For C84U U85C U102C, the self-cleavage is 0.1.

Regarding U81A U112C A124G U130C A142G, the self-cleavage worked out at 1.64.

With U14C C18U G54U U102C, the self-cleavage was found to be 1.84.

Consider U29C A67U A107G, for which the self-cleavage turned out to be 0.38.

For A59G A121U A136U, the self-cleavage was found to be 0.07.

For U39A A79G C84U U143C, the self-cleavage was found to be 0.

A67U U109C C113U: the self-cleavage is 0.04.

As to U14C A78U U132C, the self-cleavage stood at 2.66.

For U47C A92U A117G, the self-cleavage is 0.46.

For C3U U47C U100C, the self-cleavage was found to be 1.31.

In the case of U15A U23C C28U U39A, the self-cleavage was determined as 0.64.

For the variant A43G U46C C68U U102C A136G, the self-cleavage is 0.15.

On to U9C A59G A78U U109A, for which the self-cleavage is 0.35.

For U39A U87A U102A U132C A142G, the self-cleavage came out at 0.07.

For A59G C84U U115C, the self-cleavage is 0.05.

Turning to U46C A64U A138G, the self-cleavage stood at 0.59.

As to U15C U115C G144U, the self-cleavage is 1.1.

As to U12C U73C A94G, the self-cleavage was 0.42.

As to U29C A69G U119C, the self-cleavage is 0.92.

G11A U81C C84A U102A U115A: the self-cleavage turned out to be 0.2.

Take A64G U100C U130A: the self-cleavage came out at 0.26.

For the variant U12C A43G A64G, the self-cleavage came out at 0.

Consider G7A U73A A136U, for which the self-cleavage came out at 1.97.

For the variant U13C G27U G54A A129G, the self-cleavage is 0.55.

Regarding G72A U91C U112C A124U, the self-cleavage amounted to 0.45.

As to U20G A64G U119A A129G, the self-cleavage came out at 0.57.

Take U15A U46C A69G A124U A140G: the self-cleavage amounted to 0.77.

In the case of U102A U130A A140G, the self-cleavage was found to be 2.97.

Regarding G53U A64G U104C A141G, the self-cleavage worked out at 0.22.

Turning to G21U A94G U130A, the self-cleavage stood at 0.15.

As for U39C C111U G114A, the self-cleavage came to 0.85.

Take C17G A22G A94G: the self-cleavage amounted to 0.42.

As to U52A A59G A140G, the self-cleavage came to 0.08.

For G86U A107G U112G, the self-cleavage worked out at 0.08.

As to U52C A57G G70C, the self-cleavage was found to be 0.11.

Regarding U12C G74A G126A, the self-cleavage turned out to be 1.03.

For the variant G35U A65G A124G, the self-cleavage was 0.03.

On to A65G U115C A136G A138G, for which the self-cleavage turned out to be 0.

As for G10A U29C U115C, the self-cleavage was determined as 1.53.

As for A22U A67U A117G, the self-cleavage came to 0.

Consider U130A A142G U143A, for which the self-cleavage turned out to be 0.

Take A59G C61U A69U U115C: the self-cleavage stood at 0.06.

In the case of G106U C111A A140G, the self-cleavage was determined as 1.23.

Turning to U9A U52C A136U, the self-cleavage is 1.

On to U13C A57G U132C, for which the self-cleavage was determined as 0.72.

G8A A43G U132C A141C: the self-cleavage amounted to 1.65.

Turning to U1C U96C U102A U109C, the self-cleavage stood at 0.3.

Take A64G G86U U119C A124U: the self-cleavage turned out to be 0.15.

On to A50G U115C U119A, for which the self-cleavage is 1.25.

Consider U9G A42U C103A G125U, for which the self-cleavage was 0.73.

Consider A50U C90U A136U, for which the self-cleavage was determined as 0.05.

As for C3A U115C A124U A142C, the self-cleavage turned out to be 1.31.

Take U5C U15C A77G U112C A142G: the self-cleavage was determined as 1.69.

On to U13C U62C A77U A141G, for which the self-cleavage turned out to be 0.16.

Regarding U12C A43G U47G, the self-cleavage came to 1.57.

For the variant U9C U39A U47A C61A G74A A124G, the self-cleavage is 0.03.

On to U13C U47A A67G A94C, for which the self-cleavage was found to be 0.22.

Take G41A C84U U104C: the self-cleavage was found to be 0.12.

Regarding A24U C71G U100C A124G, the self-cleavage stood at 0.12.

U15A A24G G41A U134A A141G: the self-cleavage was determined as 0.86.

On to G33C U85C U109C U115C, for which the self-cleavage worked out at 0.

In the case of U45C U47A G74A U81C, the self-cleavage turned out to be 0.97.

Values taken from the RNAGym collection of RNA variant scans (doi:10.7554/elife.90254).
